In the antibiotic and cytotoxicity screens of Wong et al. (2023) one finds growth inhibition call data, which are given here for 12 compounds.

Each structure is given as a SMILES string. The list shows a part of the results.

The experiment concerns S. aureus RN4220. The experiment in a line: growth inhibition call (relative growth <= 0.2). To be noted: 50 µM.
On to `CC(=O)NC(CCC(N)=O)C(=O)O` (configuration not stated), for which the growth inhibition call was “inactive”.
With `COc1ccc(S(=O)(=O)N2C[C@@H](O)COC[C@H]3O[C@@H](CC(=O)NCc4ccc(Cl)c(Cl)c4)CC[C@@H]32)cc1`, the growth inhibition call is “inactive”.
For `C=CCN1C(=O)C[C@@H]2[C@@H]1CCN2c1cnccn1`, the growth inhibition call is “inactive”.
In the case of `C[C@@H]1CN([C@@H](C)CO)C(=O)Cc2cc(NC(=O)Nc3ccc(C(F)(F)F)cc3)ccc2O[C@@H]1CN(C)S(=O)(=O)c1ccc(Cl)cc1` it was “inactive”; in that of `CC(C)NC(=O)N(C)C[C@H]1Oc2ccc(NS(=O)(=O)c3cn(C)cn3)cc2C(=O)N([C@H](C)CO)C[C@H]1C`, “inactive”; in that of `C[C@@H]1CN([C@H](C)CO)C(=O)Cc2cc(NC(=O)c3ccncc3)ccc2O[C@@H]1CN(C)S(=O)(=O)c1cccs1`, “inactive”.
In the case of `CC(C)CCN1CCn2c(CO)nnc2C1` it was “inactive”; in that of `COc1cccc(NC(=O)C[C@H]2CC[C@@H]3[C@H](COc4ccc(NC(=O)C5CCOCC5)cc4C(=O)N3C)O2)c1`, “inactive”; in that of `CC1=C(/C=C/C(C)=C/C=C/C(C)=C/C=C/C=C(C)/C=C/C=C(C)/C=C/C2=C(C)C(=O)C(O)CC2(C)C)C(C)(C)CC(O)C1=O` (configuration not stated), “inactive”.
Next, `Cc1noc(C)c1S(=O)(=O)Nc1ccc2c(c1)CC(=O)N([C@@H](C)CO)C[C@H](C)[C@@H](CN(C)Cc1ccncc1)O2`: “inactive”; `CC(C)NC(=O)Nc1ccc2c(c1)CC(=O)N([C@H](C)CO)C[C@H](C)[C@@H](CN(C)Cc1ccc(Oc3ccccc3)cc1)O2`: “inactive”; `C/C=C/c1ccc2c(c1)O[C@@H](CN(C)S(=O)(=O)c1ccc(F)cc1)[C@@H](C)CN([C@@H](C)CO)S2(=O)=O`: “inactive”.
